Source: PubChem BioAssay AID1346428 (National Center for Advancing Translational Sciences (NCATS), 2018)
Where “and” joins values, the source holds several entries; their conditions need not be identical. Identical values can stand only once. The whole screen tested about 48,000 compounds, of which about 1,200 (2.5%) were called active. Inconclusive results (about 2%) are left out.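 How the source made its calls: active means activation of at least 60% and not above a set upper limit (about 1 call in 100 departs from these limits); inconclusive means activation of 40% to 60%, or above that upper limit; inactive means activation under 40%.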 This is one part of the list.

These compounds were tested against Probable G-protein coupled receptor 32 (Homo sapiens) (UniProt O75388) (assay: qHTS for Agonists of Human Resolvin D1 Receptor DRV1). Details: CHO-K1 GPR32 beta-arrestin PathHunter luminescence, 90 min; at 76.9 µM; active compounds read high; zero percent set by DMSO-only wells.
UniProt O75388, sequence (O75388 whole entry, looked up): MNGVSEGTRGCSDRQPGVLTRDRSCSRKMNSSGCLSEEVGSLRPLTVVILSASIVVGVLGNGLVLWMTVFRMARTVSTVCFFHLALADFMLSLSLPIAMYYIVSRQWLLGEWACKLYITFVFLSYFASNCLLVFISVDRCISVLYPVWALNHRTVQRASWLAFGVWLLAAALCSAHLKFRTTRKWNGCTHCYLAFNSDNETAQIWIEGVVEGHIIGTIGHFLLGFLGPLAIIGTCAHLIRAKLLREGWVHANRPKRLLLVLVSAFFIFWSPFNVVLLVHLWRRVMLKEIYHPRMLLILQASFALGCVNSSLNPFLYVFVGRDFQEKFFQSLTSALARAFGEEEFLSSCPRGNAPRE
Procedure, shortened: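 Beta-arrestin recruitment read-out: luminescence from complemented beta-Gal in CHO-K1 GPR32 PathHunter cells, measured 1 h after detection reagent at ambient temperature following 90 min compound exposure at 37 °C; DMSO served as basal (EC0) control.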
Further: 0% is about no effect.

Compound	activation
COc1cccc(N2CC(NC(=O)/C=C\c3ccc4c(c3)OCO4)CC2=O)c1 (stereo not drawn)	inactive: -1.14%
COc1ccccc1CNC(=O)CCn1c(=O)c2ccccc2n(CC(=O)Nc2ccc(C)cc2C)c1=O	inactive: -11.1%
Cc1cc(OC(=O)c2cc(-c3ccc4c(c3)OCCO4)on2)ccc1Cl	inactive: -34.1%
COc1ccc2c(c1)-c1nc(NC(=O)c3cc(Cl)ccc3OC)sc1CC2	inactive: -13.6%
Cc1ccc(CN2CCCn3nc(C(=O)NCCc4ccc(Cl)cc4)cc3C2=O)cc1	active: 115%
CN1c2ccccc2-c2nc(SCC(=O)Nc3ccccc3C(F)(F)F)ncc2S1(=O)=O	inactive: -12.6%
CCc1nn2c(=O)c(S(=O)(=O)Nc3ccc(OC)c(Cl)c3)c(C)nc2s1	inactive: -8.57%
O=C(NCC(c1cccnc1)N1CCN(Cc2ccccc2)CC1)C(=O)Nc1ccc(Cl)cc1 (stereo not drawn)	inactive: 20.4%
CCN(Cc1ccccc1)C(=O)Cn1c(=O)n(Cc2ccccc2)c(=O)c2c1c1cc(OC)ccc1n2C	inactive: -8.25%
Cc1ccc2c(=O)cc(CSc3ccccc3)[nH]c2c1C	inactive: -6.79%
Cc1ccc(CSCC(=O)N2CCN(c3ccc(F)cc3)CC2)cc1	inactive: -22.1%
CC(C)c1ccc(S(=O)(=O)c2nnn3c2nc(NC2CCCC2)c2sccc23)cc1	inactive: -11.3%
Cc1nc(CC(=O)Nc2cccc(C)c2C)cs1	inactive: -10.5%
CC(=O)c1cccc(S(=O)(=O)NCCc2csc3nc(-c4ccc(F)cc4)nn23)c1	inactive: -6.74%
Cc1cccc(N(CC(=O)Nc2ccc(Br)cc2)S(C)(=O)=O)c1C	inactive: 23.8%
COc1ccc(OC)c(NC(=O)c2c(NCc3ccc(C)o3)sc3c2CCC(C)C3)c1 (stereo not drawn)	inactive: -8.94%
COc1ccc(C(=O)NCc2ccc3c(c2)CCN3C(=O)c2ccncc2)cc1	inactive: -14.1%
Cc1cccc(C(=O)NCCc2sc(-c3ccccc3)nc2C)c1	active: 77.7%
CCOC(=O)c1sc2ccccc2c1S(=O)(=O)Nc1cccc(C(F)(F)F)c1	inactive: -10.1%
C=CCc1cccc2cc(C(=O)Nc3cccc(Cl)c3)c(=O)oc12	inactive: -2.93%
Cc1coc2c1c(C)cc1oc(=O)cc(C)c12	inactive: 7.41%
CC(C)OCCCNC(=O)c1ccc2c(=O)n(CCc3ccccc3)c(=O)[nH]c2c1	inactive: 12.1%
COc1ccc(-c2nnc(SCC(=O)Oc3c(C)cccc3C)o2)cc1OC	inactive: -15.6%
CCCCN(C)C(=O)C(Cc1ccccc1)NS(=O)(=O)c1ccc2c(c1)c(=O)n(C)c(=O)n2C (stereo not drawn)	inactive: -11%
Cc1ccc(-c2c(C(=O)NCc3ccccc3)oc(=O)c3ccccc23)cc1	inactive: -8.36%
CCC(C)NC(=O)c1ccc(-n2c(-c3ccccc3)cc3c2CCCC3)cc1 (stereo not drawn)	inactive: -23.6%
Cc1ccccc1CNC(=O)c1ccc(-c2nc(CS(=O)(=O)c3ccccc3)c(C)o2)cc1	inactive: -2.05%

Compound	activation
COc1ccc(C)cc1NC(=O)CN(c1cc(C(F)(F)F)ccc1Cl)S(C)(=O)=O	inactive: -10.5%
CCc1cccc(C)c1NC(=O)c1cc(C)nc2c1c(C)nn2-c1cccc(Cl)c1C	inactive: -4.49%
CC(=O)c1c(C)oc2ccc(N(C(=O)Oc3ccccc3)S(=O)(=O)c3ccc(C(C)(C)C)cc3)cc12	inactive: 5.72%
COc1cc(NC(=O)c2cc(Cl)c(OC)c(Cl)c2)ccc1NC(=O)c1cc2ccccc2o1	inactive: 2.21%
COCCNC(=O)CN1C(=O)CCn2nc(-c3cn(C)c4ccccc34)cc21	inactive: 0.377%
COc1ccc(-c2nc3n(n2)C(c2ccccc2)C(C(=O)Nc2cccnc2)=C(C)N3)cc1 (stereo not drawn)	inactive: -10.7%
CCOC(=O)N1CCN(CCC(=O)Nc2cccc(F)c2)CC1	inactive: 7.25%
CN1CCN(CC(=O)N2c3ccccc3C(=O)Nc3cccnc32)CC1	inactive: -13.5% and inactive: -1.39%
Cc1c(C(=O)NCc2ccc(Cl)cc2)sc2nc3n(c(=O)c12)CCC3	inactive: -9.3%
Cc1ccc(NC(=O)CC(c2ccc(F)cc2)N2Cc3ccccc3C2=O)cc1C (stereo not drawn)	inactive: -3.07%
Cc1c(C(=O)O)oc2c1-c1nn(Cc3ccccc3Cl)cc1CC2	inactive: -19.5%
COc1cc([C@@H]2Nc3c(F)cccc3[C@@H]3C=CC[C@@H]32)cc(Br)c1OC	inactive: -11.8%
CC(=O)N(CC(O)CO)c1c(I)c(C(=O)NCCO)c(I)c(C(=O)NCC(O)CO)c1I (stereo not drawn)	inactive: 1.62%
CCc1ccccc1NC(=O)c1ccc(F)c(S(=O)(=O)N2CCN(c3ccccc3OC)CC2)c1	inactive: -10.4%
COc1ccc2c(Sc3ccc(C)cc3)c(C(=O)NC(C)c3ccccc3)[nH]c2c1 (stereo not drawn)	inactive: -7.44%
CCc1ccc(C(=O)c2cn(CC(=O)NCc3ccc(C)cc3)c3nc(C)ccc3c2=O)cc1	inactive: 28.5%
Cc1ccc(Sc2ccc(N3CCC(C(=O)Nc4ccc(Cl)cc4)CC3)nn2)cc1	inactive: 34%
Cc1ccc(N2C(=O)C(CC(=O)Nc3ccc(F)cc3)N(Cc3ccc4c(c3)OCO4)C2=O)cc1 (stereo not drawn)	inactive: -0.0487%
Cc1ccc(CNC(=O)c2ccc3c(c2)NC(=O)C(CS(=O)(=O)Cc2cccc(F)c2)N3)cc1 (stereo not drawn)	inactive: 3.29%
CC(=O)c1ccc(NC(=O)c2cc3c(=O)oc4ccc(C)cc4c3s2)cc1	inactive: -5.72%
Cc1ccc(CNC(=O)Cn2c(-c3cccs3)cc3cc(Cl)ccc32)cc1	inactive: -7.26%
O=C(Nc1nc2c(F)cccc2s1)c1ccc2c(c1)OCCO2	inactive: 38.8%
CCOC(=O)CCNC(=O)N1CCN(S(=O)(=O)c2ccc3c(ccn3C)c2)CC1	inactive: -1.25%
CCc1nn(CC(=O)NCCCc2ccccc2)c(=O)c2cc3cc(F)ccc3n12	inactive: -8.84%
O=C(CSCn1nnc2c(=O)[nH]c(Cc3ccc(F)cc3)nc21)Nc1ccccc1	inactive: 0.395%
O=S(=O)(c1ccc(Cl)cc1)c1nc(-c2ccccc2F)oc1NCc1ccccc1	inactive: 2.86%
